The nature of the data set: label from the status in PepcDB records.

Among the data in a protein production outcome set (Wang et al. 2014) are protein production values, retold here.

For “EEVFGVKKWECTVISNDNKATFIKELKLAIPEGEEVPFRAGGYIQIEAPPHTVAYKDFDIPKEYHEDWDKYNLWQYVSKVDEPILRAYSMASYPEEKGIIMLNVRIATPPPRVPDAPPGQMSSYIWSLKPGDKVTISGPFGEFFAKDTDAEMVFIGGGAGMAPMRSHIFDQLKRLNSKRKITFWYGARSKREMFYVEDFDQLAAEFPNFTWHVALSDPLPEDNWDGYTGFIHNVVYENHLKNHEAPEDCEFYMCGPPIMNQSVIKMLKDLGVEDENILLDDFGG”, the protein production entry is given as “failed”.
